Measurements from PMC4336329 (PLoS ONE, 2015).
The whole screen tested about 310,000 compounds, of which about 14,000 (4.5%) showed an effect of 50% or more. Effects have a minus sign here. The list shows a part of the results.

Biological target: human ether-à-go-go-related gene (hERG) potassium channel (human, UniProt Q12809)
Test: primary screen, population patch clamp on CHO cells stably expressing hERG
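Note: peak tail current of the secondary pulse compared with the same well before compound.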

Chain of human ether-à-go-go-related gene (hERG) potassium channel (Q12809 whole entry, looked up): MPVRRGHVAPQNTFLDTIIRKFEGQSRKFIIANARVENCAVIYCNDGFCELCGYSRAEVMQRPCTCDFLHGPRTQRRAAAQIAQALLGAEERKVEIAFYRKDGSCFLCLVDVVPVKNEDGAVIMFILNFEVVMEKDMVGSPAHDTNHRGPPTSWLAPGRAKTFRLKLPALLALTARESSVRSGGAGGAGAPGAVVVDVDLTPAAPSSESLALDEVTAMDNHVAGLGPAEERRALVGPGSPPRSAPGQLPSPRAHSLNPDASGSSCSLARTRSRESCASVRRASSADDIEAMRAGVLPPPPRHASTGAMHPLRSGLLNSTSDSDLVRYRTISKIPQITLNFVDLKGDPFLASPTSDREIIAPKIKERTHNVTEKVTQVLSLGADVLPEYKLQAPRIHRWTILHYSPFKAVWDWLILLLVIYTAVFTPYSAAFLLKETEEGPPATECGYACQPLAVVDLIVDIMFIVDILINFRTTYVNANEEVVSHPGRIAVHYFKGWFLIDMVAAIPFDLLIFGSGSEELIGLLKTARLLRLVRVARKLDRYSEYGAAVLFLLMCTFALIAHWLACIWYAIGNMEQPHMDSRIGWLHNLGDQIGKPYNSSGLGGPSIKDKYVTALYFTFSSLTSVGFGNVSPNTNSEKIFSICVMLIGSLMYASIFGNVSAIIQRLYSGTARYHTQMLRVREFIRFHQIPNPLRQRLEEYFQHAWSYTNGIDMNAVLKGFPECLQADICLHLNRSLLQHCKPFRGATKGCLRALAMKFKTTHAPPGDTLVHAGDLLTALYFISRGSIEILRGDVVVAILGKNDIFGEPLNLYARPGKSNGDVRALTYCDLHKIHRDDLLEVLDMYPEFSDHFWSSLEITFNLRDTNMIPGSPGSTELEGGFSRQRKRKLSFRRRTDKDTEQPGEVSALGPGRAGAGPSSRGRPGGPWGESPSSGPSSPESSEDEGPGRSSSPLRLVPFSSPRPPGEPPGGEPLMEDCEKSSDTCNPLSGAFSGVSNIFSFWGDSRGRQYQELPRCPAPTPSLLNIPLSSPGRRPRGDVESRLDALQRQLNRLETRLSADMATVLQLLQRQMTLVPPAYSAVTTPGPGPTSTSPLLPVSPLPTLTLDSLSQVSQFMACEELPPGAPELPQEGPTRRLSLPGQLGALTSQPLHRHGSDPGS

Row | SMILES | hERG current change (%, negative = inhibition) at 10uM
1 | CS(=O)(=O)Cc1ccc(C(=O)N(CCc2ccccc2)Cc2ccccc2)cc1 | -16.2%
2 | CN(C)c1nc(N(C)C)nc(N(C#N)CN2C(=O)c3ccccc3S2(=O)=O)n1 | -15.8%
3 | CSc1nc2sc3c(c2c(=O)n1CC(C)C)CC(C)(C)OC3 | 17.2%
4 | CCC(C)NC(=O)C1CCN(S(=O)(=O)c2cc([N+](=O)[O-])ccc2Cl)CC1 (centres unmarked) | -0.184%
5 | CCCCCCCC(=O)N/N=C/c1ccc([N+](=O)[O-])o1 | -38.5%
6 | COc1ccc(C)cc1NC(=O)CSc1nc(SC)ns1 | 4.92%
7 | O=C(CSc1nnc(-c2ccc(Cl)cc2)o1)N1CCOCC1 | 7.01%
8 | CCCCNC(=O)c1cc(-c2ccc(OC)c(OC)c2)on1 | -9.1%
9 | COC(=O)CSC1=C(C#N)C(=O)NC2(CCCCC2)S1 | 16.3%
10 | CCN(CC)c1nc(C(N)=O)cc(-c2ccccc2)n1 | -0.608%
11 | O=C1C=CC(=O)N1 | 20.1%
12 | Cc1ccc(SCC(=O)NC(=O)Nc2ccc3c(c2)OCCO3)cc1C | -9.53%
13 | Cc1ccccc1Sc1ncccc1[N+](=O)[O-] | -12%
14 | COc1ccc(Oc2ncnc3sccc23)cc1 | 1.8%
15 | CCOC(=O)c1c(NC(=O)COC(=O)c2ncc(Cl)c(Cl)c2Cl)sc(C(=O)N(C)C)c1C | -5.82%
16 | COc1ccc(S(=O)(=O)Cc2ccc(C(=O)NCCc3cc(OC)ccc3OC)o2)cc1 | -39.6%
17 | c1ccc(Oc2cc(-c3ccccc3)nc(-c3ccccc3)n2)cc1 | 3.68%
18 | CC(C)[C@@H](C(=O)N1CCCC1)N1C(=O)N2CCc3c([nH]c4ccccc34)[C@@]2(C)C1=O | -6.38%
19 | CC(C#N)(NC(=O)CN1CCN(S(=O)(=O)c2ccccc2Cl)CC1)C1CC1 (centres unmarked) | 5.18%
20 | CN(CC(=O)NCc1ccc(F)cc1)Cc1cccc(Cl)c1 | 4.92%
21 | CCOC(=O)c1ccccc1Nc1cc(C)nc2nc(C)nn12 | -15.9%
22 | O=C(c1ccc(NS(=O)(=O)c2ccc(F)cc2)cc1)N1CCCCC1 | -6.5%

Row | SMILES | hERG current change (%, negative = inhibition) at 10uM
23 | O=[N+]([O-])c1cc2c(c(CSc3nnnn3-c3ccc(O)cc3)c1)OCOC2 | -15.8%
24 | CC(=O)Nc1ccc(NC(=O)C(C)OC(=O)c2cc(S(=O)(=O)N(C)C)ccc2N2CCCC2)cc1 (centres unmarked) | 0.785%
25 | CCOC(=O)C1CCN(C(=O)COC(=O)COc2ccccc2OC)CC1 | 11.9%
26 | CN1CCN(c2oc(-c3ccccc3Cl)nc2S(=O)(=O)c2ccccc2)CC1 | -47.9%
27 | N#Cc1ccc(NCC(=O)Nc2ccc(S(=O)(=O)N3CCCCC3)cc2)cc1 | -2.03%
28 | COC(=O)c1ccc(C(=O)OC)c(NC(=S)N2CCC(C(N)=O)CC2)c1 | 8.81%
29 | O=C(NCCOc1ccccc1)c1cncc(Br)c1 | -26.8%
30 | Clc1ccc(SCCOCCN2CCCCC2)cc1.O=C(O)C(=O)O | -82%
31 | CC(=O)c1cc(C#N)c(SCC(=O)OC(C)(C)C)nc1C | 2.25%
32 | COc1ccccc1C(c1nnnn1CC1CCCO1)N1CCC(C(N)=O)CC1.Cl (centres unmarked) | 0.321%
33 | O=C(Nc1ccccc1C(=O)NC1CC1)c1ccccc1 | 12.9%
34 | O=C(N/N=C\c1cc2c(cc1Cl)OCO2)c1cccs1 | 17.5%
35 | O=C(NCc1ccco1)C(C(=O)c1ccccc1)n1ccccc1=O (centres unmarked) | 16.5%
36 | Cn1c(SCc2c(Cl)cccc2Cl)nnc1-c1cccs1 | -49.6%
37 | CC(C)N(Cc1ccccc1)C(=O)COC(=O)CCC(=O)c1ccc(F)cc1 | -37%
38 | CCc1nnc(NS(=O)(=O)c2ccc(Nc3ccc([N+](=O)[O-])c4nonc34)cc2)s1 | 46.6%
39 | COc1cccc(C(C(=O)NC2CCCCC2)N(C(=O)Cc2cccs2)c2ccc(-n3cnnn3)c(OC)c2)c1 (centres unmarked) | -8.74%
40 | Cn1c(=O)c2c(SCC(=O)NCC3CCCO3)nc(CC(C)(C)C)nc2n(C)c1=O (centres unmarked) | -28.1%
41 | CCS(=O)(=O)N1CCN=C1SCc1cccc(F)c1 | 14.7%
42 | CCN(CC(=O)Nc1cccc(C(C)=O)c1)S(=O)(=O)c1ccccc1 | -12.1%
43 | c1ccc([C@H]2CC3C[C@@H](c4ccccc4)N2O3)cc1 | 1.62%
44 | Cl.Nc1ccc(Oc2cc(N)cc(Oc3ccccc3)c2)cc1 | 11.6%
